Out of some 39,000 compounds screened, about 220 (0.56%) showed activity. The list shows a part of the results.
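Further: static incubation at 37 °C against the wild-type strain, values averaged over two biological replicates.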

The subject of this experiment is Escherichia coli K-12 BW25113. The experiment can be described thus: relative growth (OD600 normalised to plate interquartile mean) (fraction); higher = less growth inhibition, active = 0.2 or less. To be noted: 50 µM; LB; incubation time: overnight (16-24 h).
In the case of `COCCN1C[C@H]2CN(Cc3cnn(C)c3)C[C@H]2C1=O`, the relative growth was inactive: 0.991.

Take `C[C@@H]1CN([C@@H](C)CO)C(=O)c2cc(C#CCN(C)C)cnc2O[C@@H]1CN(C)C(=O)c1cnccn1`: the relative growth is inactive: 0.996.

Take `C[C@@H]1CCCCO[C@H](CN(C)C(=O)Cc2ccccc2)[C@@H](C)CN([C@@H](C)CO)C(=O)c2cc(NS(=O)(=O)c3ccc(F)cc3)ccc2O1`: the relative growth was inactive: 1.02.

In the case of `Cc1noc(C)c1NC(=O)Nc1ccc2c(c1)CC(=O)N([C@@H](C)CO)C[C@@H](C)[C@H](CN(C)Cc1ccc(-c3ccccc3)cc1)O2`, the relative growth was inactive: 0.894.

Consider `COc1ccc(S(=O)(=O)Nc2ccc3c(c2)C(=O)N([C@H](C)CO)C[C@H](C)[C@H](CN(C)Cc2ccc4c(c2)OCO4)OCCCC[C@H](C)O3)cc1`, for which the relative growth was inactive: 1.

For the compound `O=C(CN1CCOCC1)N[C@H]1CC[C@@H](CCNC(=O)Nc2cc(F)ccc2F)O[C@@H]1CO`, the relative growth is inactive: 0.995.

As to `C[C@@H]1CN([C@@H](C)CO)C(=O)c2cccc(NC(=O)c3cnccn3)c2O[C@H]1CN(C)C(=O)Nc1ccc(F)cc1`, the relative growth was inactive: 0.997.

For `C[C@@H]1CCCCO[C@@H](CN(C)C(=O)NC2CCCCC2)[C@@H](C)CN([C@@H](C)CO)C(=O)c2cc(NC(=O)Cc3ccccc3)ccc2O1`, the relative growth is inactive: 1.01.

As for `COc1ccccc1C(=O)Nc1ccc2c(c1)C(=O)N(C)[C@H]1CC[C@H](CC(=O)Nc3cccc(C(C)C)c3)O[C@@H]1CO2`, the relative growth was inactive: 1.03.

Regarding `C[C@H]1CN([C@@H](C)CO)C(=O)Cc2cc(NC(=O)Nc3ccc(C(F)(F)F)cc3)ccc2O[C@@H]1CN(C)Cc1ccc(C(F)(F)F)cc1`, the relative growth is inactive: 1.02.

Turning to `Cc1ccc(S(=O)(=O)Nc2ccc3c(c2)C(=O)N([C@@H](C)CO)C[C@H](C)[C@H](CN(C)C(=O)Nc2cccc4ccccc24)OCCCC[C@H](C)O3)cc1`, the relative growth is inactive: 1.03.

In the case of `CC(C)C#Cc1cnc2c(c1)C(=O)N([C@H](C)CO)C[C@@H](C)[C@@H](CN(C)S(=O)(=O)c1cn(C)cn1)O2`, the relative growth is inactive: 0.99.

Take `CC(=O)CCCCn1c(=O)c2c(ncn2C)n(C)c1=O`: the relative growth was inactive: 1.12.

Regarding `Cc1ccc(N2NC(=O)/C(=N/O)C2=O)cc1C`, the relative growth is inactive: 0.968.

As for `COc1ccc(NC(=O)Nc2ccc3c(c2)C(=O)N([C@H](C)CO)C[C@H](C)[C@H](CN(C)Cc2ccc4c(c2)OCO4)OCCCC[C@@H](C)O3)cc1`, the relative growth was inactive: 0.949.

For the compound `CCS(=O)(=O)Nc1ccc2c(c1)C(=O)N(C)[C@H]1CC[C@H](CC(=O)NCc3ccc(OC)cc3)O[C@@H]1CO2`, the relative growth was inactive: 0.983.

Values taken from the supplement of paper PMC9446081.
